The record followed here is patent US9650414B1, “Dual-action EP4 agonist—bisphosphonate conjugates and uses thereof” (Simon Fraser University, priority 2014, dated 2017).

SMILES strings stand for the structures.

A short description of data set [1]: in vitro. Particulars: rat, plasma, 37 C.
For data set [2] the following is noted: 100 uM, fresh rat serum, 37 C, 0 hour.
The conditions of data set [3]: 100 uM, fresh rat plasma, 37 C, 0 hour.
Data set [4] in a line: in vitro. Particulars: rat, serum, 37 C.
[5] abbreviates: remaining compound in rat plasma (control), 24 hour control, inactive rat plasma (56 C for 2.0 hour).

For the compound `N=C(N)NCCC[C@H](NC(=O)[C@@H]1CCCN1C(=O)OCc1ccccc1)C(=O)Nc1ccc(COC(=O)NCCCC(O)(P(=O)(O)O)P(=O)(O)O)cc1` [Compound 6, (4-((((4-((S)-2-((S)-1-((benzyloxy)carbonyl)pyrrolidine-2-carboxamido)-5-guanidinopentanamido)benzyl)oxy)carbonyl)amino)-1-hydroxybutane-1,1-diyl)bis(phosphonic acid)], the fraction remaining (in general, what is left of the initial amount, in per cent) at 24 h, 100 uM in data set [1] (setting [5]) was determined as 86%. For the same compound, the “remaining compound in rat serum” value in data set [2] is on record as 93%.

As to `CC(C)C[C@H](NC(=O)OCc1ccccc1)C(=O)N[C@@H](CCCNC(=N)N)C(=O)Nc1ccc(COC(=O)NCCCC(O)(P(=O)(O)O)P(=O)(O)O)cc1` [Compound 7], the “remaining compound in rat serum” value in data set [2] came out at 99%.

As to `N=C(N)NCCC[C@H](NC(=O)[C@@H]1CCCN1C(=O)CNC(=O)OCc1ccccc1)C(=O)Nc1ccc(COC(=O)NCCCC(O)(P(=O)(O)O)P(=O)(O)O)cc1` [Compound 8, (4-((((4-((S)-2-((S)-1-(((benzyloxy)carbonyl)glycyl)pyrrolidine-2-carboxamido)-5-guanidinopentanamido)benzyl)oxy)carbonyl)amino)-1-hydroxybutane-1,1-diyl)bis(phosphonic acid)], the “remaining compound in rat plasma” value in data set [3] is 95%. Besides, the share remaining at 24 h, 100 uM in data set [1] (setting [5]) was determined as 49%; in data set [1] (remaining compound in rat plasma, fresh rat plasma, 24 hour), 16%; in data set [4] (remaining compound in rat serum (control), 24 hour control, inactive rat serum (56 C for 2.0 hour)), 93%; in data set [4] (remaining compound in rat serum, fresh rat serum, 24 hour), 64%. Moreover, the amount remaining at 1 h, 100 uM worked out at 51% in data set [1] (remaining compound in rat plasma, fresh rat plasma, 1 hour) and 82% in data set [4] (remaining compound in rat serum, fresh rat serum, 1 hour). Besides, the share remaining at 2 h, 100 uM in data set [1] (remaining compound in rat plasma, fresh rat plasma, 2 hour) was 38%; in data set [4] (remaining compound in rat serum, fresh rat serum, 2 hour) it was 72%. Also, the share remaining at 4 h, 100 uM turned out to be 17% in data set [1] (remaining compound in rat plasma, fresh rat plasma, 4 hour) and 68% in data set [4] (remaining compound in rat serum, fresh rat serum, 4 hour). In data set [2], the “remaining compound in rat serum” value came out at 91%.
